Each structure is given as a SMILES string. Hit rate of the full screen: of about 310,000 compounds, about 14,000 (4.5%) showed an effect of 50% or more. The effect is printed as a negative number. The list shows a part of the results.
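Note: peak tail current of the secondary pulse compared with the same well before compound.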

In the experiment the target is human ether-à-go-go-related gene (hERG) potassium channel (human, UniProt Q12809). Kind of experiment: primary screen, population patch clamp on CHO cells stably expressing hERG.
Chain of human ether-à-go-go-related gene (hERG) potassium channel (Q12809 whole entry, looked up): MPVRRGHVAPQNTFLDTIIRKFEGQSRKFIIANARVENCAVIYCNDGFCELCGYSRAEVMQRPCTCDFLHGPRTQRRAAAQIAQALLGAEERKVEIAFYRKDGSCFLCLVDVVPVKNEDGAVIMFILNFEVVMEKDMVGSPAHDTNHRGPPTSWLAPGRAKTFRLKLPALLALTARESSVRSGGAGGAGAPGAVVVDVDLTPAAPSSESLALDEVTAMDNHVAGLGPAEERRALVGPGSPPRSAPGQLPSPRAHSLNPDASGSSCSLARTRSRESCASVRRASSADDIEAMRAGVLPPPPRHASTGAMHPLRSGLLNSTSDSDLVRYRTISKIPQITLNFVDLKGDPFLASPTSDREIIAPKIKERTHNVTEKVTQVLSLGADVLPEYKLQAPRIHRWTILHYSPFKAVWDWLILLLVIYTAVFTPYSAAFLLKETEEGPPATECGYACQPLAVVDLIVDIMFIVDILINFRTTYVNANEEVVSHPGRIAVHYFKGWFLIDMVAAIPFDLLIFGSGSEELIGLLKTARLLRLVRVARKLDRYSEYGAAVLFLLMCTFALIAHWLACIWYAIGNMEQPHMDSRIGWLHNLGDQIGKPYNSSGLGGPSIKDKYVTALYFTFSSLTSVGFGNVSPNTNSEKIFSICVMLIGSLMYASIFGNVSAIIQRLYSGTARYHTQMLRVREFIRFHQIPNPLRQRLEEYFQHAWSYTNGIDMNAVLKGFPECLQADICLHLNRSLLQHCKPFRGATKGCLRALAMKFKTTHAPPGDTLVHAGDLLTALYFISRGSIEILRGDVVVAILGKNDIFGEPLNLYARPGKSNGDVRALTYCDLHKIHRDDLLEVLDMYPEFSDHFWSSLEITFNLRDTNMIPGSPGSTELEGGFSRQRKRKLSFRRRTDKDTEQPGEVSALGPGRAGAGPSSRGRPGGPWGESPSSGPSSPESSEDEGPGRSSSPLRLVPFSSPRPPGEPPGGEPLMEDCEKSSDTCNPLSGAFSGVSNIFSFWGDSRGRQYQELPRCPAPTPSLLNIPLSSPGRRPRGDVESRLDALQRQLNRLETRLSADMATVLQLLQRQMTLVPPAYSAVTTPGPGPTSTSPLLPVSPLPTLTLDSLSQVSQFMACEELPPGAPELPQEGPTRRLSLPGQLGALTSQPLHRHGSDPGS
`O=C(Nc1c(C(=O)N2CCCCC2)cnn1-c1ccccc1)c1ccco1`: the “hERG current change (%, negative = inhibition) at 10uM” value came to 13.4%.
The result for `COc1ccc(CCC(=O)N2CCN(C(=O)c3ccccc3)CC2)cc1` reads 5.76%; that for `CN(C)CCCNC(=S)NCC(c1ccc(Cl)cc1Cl)c1c[nH]c2ccccc12` (stereo not shown), -19.2%; that for `CN(Cc1ccccc1)C(=O)CSc1nc2cc(C(=O)N3CCC(C(N)=O)CC3)ccc2c(=O)n1-c1ccccc1`, -3.37%.
The same measure for `COC(=O)c1ccccc1NC(=S)N(Cc1ccc2c(c1)OCO2)Cc1cc2cc(OC)ccc2[nH]c1=O`: 8.29%.
The same measure for `Cc1cc(=O)n2nc(N3CCCC(C(=O)NCc4ccccc4Br)C3)sc2n1` (stereo not shown): -2.93%.
Turning to `Cc1ccc(C)c(N2CCN(C(=O)CSc3ccsc3[N+](=O)[O-])CC2)c1`, the “hERG current change (%, negative = inhibition) at 10uM” value is listed as -7.96%.
The same measure for `COc1ccc(C)cc1NC(=S)N1CCN(S(C)(=O)=O)CC1`: 14.6%; for `Cc1cccc(NC(=S)NCCN(C2CCCCC2)C2CCCC2)c1`: -70.3%; for `Cc1cc(C)cc(NC(=O)Nn2cnnc2)c1`: 28.4%.
The result for `CCCN1CCN(S(=O)(=O)c2c(C)[nH]c(C)c2C(=O)N2CCCCC2)CC1` reads 1.38%.
The result for `CCOc1cc(C(=O)Nc2cccc(OCC(=O)N3CCOCC3)c2)cc(OCC)c1OCC` reads 15.1%.
Take `CC(=O)NCc1ccc(S(=O)(=O)N/N=C/c2ccc(N(C)C)cc2)cc1`: the “hERG current change (%, negative = inhibition) at 10uM” value came out at 4.06%.
The same measure for `CCn1c(SCC(=O)N/N=C(\C)c2ccncc2)nnc1-c1ccccc1`: -3.4%; for `COc1ccc(-n2c(C)cc(/C=C3\SC(=O)NC3=O)c2C)cc1`: 11.7%.
Consider `CCOC(=O)c1c(NC(=O)COC(=O)c2cnccn2)sc(C(=O)NC)c1C`, for which the “hERG current change (%, negative = inhibition) at 10uM” value was -9.73%.
The same measure for `CSc1nc2nc3c(cn2n1)C(=O)CC(c1ccccc1)C3` (stereo not shown): -5.67%.
The same measure for `CC(=O)Oc1ccc(/C=N/NS(=O)(=O)c2ccccc2)cc1`: -4.37%; for `O=C(NCc1nnc(SCC(=O)N2CCCC2)o1)c1ccco1`: -7.2%; for `COc1ccc(/C=C/C(=O)NCCCN2CCCC2)cc1`: -44.5%.
With `COc1ccccc1NC(=S)NCc1ccc(S(N)(=O)=O)cc1`, the “hERG current change (%, negative = inhibition) at 10uM” value is listed as 2.57%.
The same measure for `O=C(Nc1ccc(N=Nc2ccccc2)cc1)c1cccc(Cl)c1`: -0.566%; for `COc1ccc(CCNC(=S)NCc2ccc(Cl)c(Cl)c2)cc1OC`: 14.5%; for `CC1=NN(c2ccccc2)C(=O)/C1=C\C=C1/N(C)c2ccccc2C1(C)C`: -8.23%.
The result for `Cc1cc(C)c(C(N)=O)c(NC(=O)Nc2ccccc2)n1` reads 5.72%; that for `Cc1ccccc1OCCNc1cc(N2CCNCC2)ccc1[N+](=O)[O-]`, -4.38%; that for `CCCn1nnnc1-c1cccc(Cl)c1`, -12.4%.
The same measure for `CCCNC(=O)c1ccc2c(=O)n3c(-c4ccc(C)cc4)csc3nc2c1`: 5.26%; for `Cc1cccc(OCc2nnc(SCC(=O)Nc3ccc(N4CCOCC4)cc3)o2)c1`: 9.68%; for `CNC(=O)c1cc(S(=O)(=O)NCc2ccncc2)ccc1OC`: 4.36%.
Take `C[N+](C)(CCCCCC[N+](C)(C)CCCN1C(=O)c2cccc3cccc(c23)C1=O)CCCN1C(=O)c2cccc3cccc(c23)C1=O.[Br-]`: the “hERG current change (%, negative = inhibition) at 10uM” value was found to be 15%.
The result for `CNc1nc(NCc2ccccc2)nc(N)c1[N+](=O)[O-]` reads 8.41%; that for `COc1ccc(S(=O)(=O)N2CCC(C(=O)Nc3cccc(C(C)=O)c3)CC2)cc1`, -27.9%; that for `CSc1ccc(S(=O)(=O)NCCSc2ccccn2)cc1`, -22.2%.
The same measure for `CC(C)n1c(=O)[nH][nH]c1=S`: 15%.
The result for `Cc1ccc(/C=C2\SC(=S)N(CCC(=O)Nc3cccnc3)C2=O)cc1` reads 14%.
As for `COc1cc(OC)cc(C(=O)Nc2ccccc2C(=O)NC2CC2)c1`, the “hERG current change (%, negative = inhibition) at 10uM” value is given as 9.06%.
The same measure for `CCOC(=O)c1ccc(NC(=O)N2CCCCCC2)cc1`: -5.72%; for `CC(C)CN1CCN(Cc2cn(C)c3ccccc23)CC1CCO` (stereo not shown): 9.53%; for `CCCc1nc2c(c(=O)c3ccccc3n2C)c(=O)n1-c1cc(C)cc(C)c1`: -12.2%.
The same measure for `C=C(C)Cn1c(C)cc(C)c(S(=O)(=O)c2ccc(C)cc2)c1=O`: 4.75%; for `COc1ccc(S(=O)(=O)Cc2ccc(C(=O)NC3CCCCCC3)o2)cc1`: -2.22%; for `CC(C)(C)c1ccc2c(c1)C(=O)c1ccccc1C2=O`: 7.92%.
For `N#C/C(=C\c1cccnc1)c1ccccn1`, the “hERG current change (%, negative = inhibition) at 10uM” value is 9.17%.
The same measure for `CCOc1cc(N2CCOCC2)c(OCC)cc1NC(=O)COC(=O)COc1ccc(C#N)cc1`: 10.5%.
The result for `CCCc1[nH]nc2c1C(c1ccncc1)C(C#N)=C(N)O2` (stereo not shown) reads -4.11%; that for `COc1ccc(/C=C/C(=O)NC(=S)N2CCOCC2)cc1`, 1.48%; that for `CSc1ncc(/C=C2/C(=O)NC(=O)N(C)C2=O)cn1`, 18.8%.
The same measure for `COc1cc(Cl)c(C)cc1NC(=O)COC(=O)c1cnc(C)cn1`: 4.05%.
With `COc1cc(S(=O)(=O)N(Cc2ccco2)C2CCCC2)ccc1-n1cnnn1`, the “hERG current change (%, negative = inhibition) at 10uM” value is -12.1%.
The same measure for `Cc1cc(C)cc(NC(=O)CCNS(=O)(=O)c2cc(Br)cnc2N)c1`: 17.2%; for `O=C(CCNC(=O)N1CCn2c1nc1ccccc12)NCc1ccccc1Cl`: -16.2%; for `Cc1cc(NCCN2CCOCC2)n2nc(C)c(-c3ccc(Cl)cc3)c2n1`: -50.2%.
The same measure for `CN(C)C(=O)Oc1ccc(Cl)c2cccnc12`: 0.409%; for `Fc1cccc(Nc2nc3ccccc3n3nnnc23)c1`: 6.86%; for `CCOC(=O)c1sc(NC(=O)C2C3C=CC(C3)C2C(=O)O)nc1C` (stereo not shown): 16.2%.
The same measure for `COc1ccc(-c2csc(N3CCSCC3)n2)cc1`: 18.1%; for `COc1cc(C(=O)N/C(=C\c2cn(C)c3ccccc23)C(=O)NCCCN2CCOCC2)cc(OC)c1OC`: 2.72%.
Regarding `O=C(CCN1CCOCC1)Nc1ccc(F)cc1`, the “hERG current change (%, negative = inhibition) at 10uM” value was -10.5%.
As to `CCn1c(Cc2cccn2C)nnc1SCC(=O)c1ccc(C)cc1`, the “hERG current change (%, negative = inhibition) at 10uM” value came out at 1.17%.
As for `COC(=O)c1c(-c2ccc(OC)cc2)oc2ccccc12`, the “hERG current change (%, negative = inhibition) at 10uM” value was determined as 8.9%.
The result for `CCOC(=O)C1=C(COc2ccccc2)NC(=O)NC1c1ccc(Br)cc1` (stereo not shown) reads 10.4%; that for `O=C(COc1ccccc1-c1ccccc1)N/N=C/c1ccccn1`, -4.97%; that for `CC(Sc1nnc(Cc2cccs2)n1C1CCCCC1)C(=O)N1CCc2ccccc21` (stereo not shown), -31.2%.
The same measure for `COc1cc(NC(=O)COC(=O)/C=C/c2ccc(O)c(OC)c2)cc(OC)c1`: 14.2%; for `c1ccc(-c2csc(Nc3cccnc3)n2)cc1`: 3.51%; for `N#CC1=C(N)N(c2ncn[nH]2)C2=C(C(=O)CCC2)C1c1ccccc1` (stereo not shown): 19.3%.
The same measure for `O=C(COc1ccc(-n2ccnc2)cc1)Nc1cccc(F)c1`: -54.6%.
Turning to `Cc1cc(F)ccc1S(=O)(=O)N1CCCOC1CNC(=O)C(=O)NCc1ccc2c(c1)OCO2` (stereo not shown), the “hERG current change (%, negative = inhibition) at 10uM” value is reported as -26.9%.
The result for `O=C(CCSc1nc2cc(Cl)ccc2o1)N1CCOCC1` reads -9.91%.
For the compound `NS(=O)(=O)c1ccc(CCNC(=O)COC(=O)CCc2ccccc2)cc1`, the “hERG current change (%, negative = inhibition) at 10uM” value is reported as 14.8%.
The same measure for `Cc1cccc(NC(=O)CN2C(=O)N/C(=C\c3ccccc3OCc3ccc(C(=O)O)cc3)C2=O)c1`: 18.4%; for `CCc1ccccc1NC(=O)CNC(=O)c1cc(C2CC2)nc2c1cnn2C(C)C`: -13.8%; for `O=c1n(S(=O)(=O)c2cccc3cccnc23)c2ccccc2n1S(=O)(=O)c1cccc2cccnc12`: 11.5%.
With `Cc1cc(NC(=O)CSC2=NS(=O)(=O)c3cc(Cl)ccc3N2)no1`, the “hERG current change (%, negative = inhibition) at 10uM” value is listed as 18.5%.
The same measure for `O=C(Nc1ccon1)c1cccc(Cl)c1`: 7.02%; for `CCOc1ccc(=O)n(-c2ccccc2)n1`: 5.75%.
The result for `COc1ccc(-c2ccc(=O)n(Cc3ccccc3)n2)cc1` reads -5.74%; that for `O=C1Cc2ccccc2Sc2ccc(Cl)cc21`, 16%; that for `O=C1N[C@@H](Cc2ccccc2)C(=O)N2[C@H]1C[C@]1(Br)c3ccccc3N(S(=O)(=O)c3ccc(F)cc3)[C@H]21`, -5.36%.
The result for `COCC1=C(C(=O)OC)C(c2ccco2)n2ncnc2N1` (stereo not shown) reads 18%.
Take `CSCCC(=O)NC1CC(C)(C)Cc2c1cnn2-c1ccccc1C` (stereo not shown): the “hERG current change (%, negative = inhibition) at 10uM” value is recorded as -10.4%.
The result for `CC(C)CN(CC(C)C)c1ccc(/C=N/n2cnnc2)cc1[N+](=O)[O-]` reads -21.6%; that for `CCOc1ccc(CCNC(=O)COC(=O)CCC(=O)c2cccs2)cc1OCC`, -17.6%.
The same measure for `O=C(O)CCc1ccc(-c2ccccc2)n1Cc1ccco1`: 2.33%; for `Cl.O=C(CS(=O)CC(=O)Nc1cnc2ccccc2c1)Nc1ccc(Cl)cc1` (stereo not shown): -10.5%.
The same measure for `O=C(Nc1ccccc1-c1ccccc1)C(c1ccccc1)c1ccccc1`: 10.4%.
Consider `Cc1cc(C)nc(S/C=C/C(=O)c2ccccc2F)n1`, for which the “hERG current change (%, negative = inhibition) at 10uM” value amounted to 5.02%.
